A collection of fitness landscapes (doi:10.1126/science.1257360)
The list shows a part of the results.

B1: PhoQ; a variant is named by its letters at X, in order, P23837 (parent)
chain: MKKLLRLFFPLSLRVRFLLATAAVVLVLSLAYGMVALIGYSVSFDKTTFRLLRGESNLFYTLAKWENNKLHVELPENIDKQSPTMTLIYDENGQLLWAQRDVPWLMKMIQPDWLKSNGFHEIEADVNDTSLLLSGDHSIQQQLQEVREDDDDAEMTHSVAVNVYPATSRMPKLTIVVVDTIPVELKSSYMVWSWFIYVLSANLLLVIPLLWVAAWWSLRPIEALAKEVRELEEHNRELLNPATTRELTSLVRNLNRLLKSERERYDKYRTTLTDLTHSLKTPLXXLQXXLRSLRSEKMSVSDAEPVMLEQISRISQQIGYYLHRASMRGGTLLSRELHPVAPLLDNLTSALNKVYQRKGVNISLDISPEISFVGEQNDFVEVMGNVLDNACKYCLEFVEISARQTDEHLYIVVEDDGPGIPLSKREVIFDRGQRVDTLRPGQGVGLAVAREITEQYEGKIVAGESMLGGARMEVIFGRQHSAPKDE

Variants of: B1
Experiment: enrichment ratio after two sorts for PhoP signalling (ratio (wild type AVST 3.29)); higher = more functional
Conditions: with PhoP (E. coli)

HNQA and PCYT cannot be ordered by enrichment ratio: ≤ 0.25 for the first, ≤ 0.25 for the second.

MYNE and DYTW cannot be ordered by enrichment ratio: ≤ 0.25 for the first, ≤ 0.25 for the second.

Going from WQIS to SDVL, the enrichment ratio rises from ≤ 0.25 to 1.44.

Compared with LCYW, VGLT is higher in enrichment ratio: ≤ 0.25 for the first, 4.92 for the second.

MQKT and LNRN cannot be ordered by enrichment ratio: ≤ 0.25 for the first, ≤ 0.25 for the second.

YAKL and ELQN cannot be ordered by enrichment ratio: ≤ 0.25 for the first, ≤ 0.25 for the second.

VQEA and PGFP cannot be ordered by enrichment ratio: ≤ 0.25 for the first, ≤ 0.25 for the second.

TVDK and QLTL cannot be ordered by enrichment ratio: ≤ 0.25 for the first, ≤ 0.25 for the second.

RMWT and PYDW cannot be ordered by enrichment ratio: ≤ 0.25 for the first, ≤ 0.25 for the second.

NFIR and GNDV cannot be ordered by enrichment ratio: ≤ 0.25 for the first, ≤ 0.25 for the second.

VTIT and MNAP cannot be ordered by enrichment ratio: ≤ 0.25 for the first, ≤ 0.25 for the second.

FFWS and FYAK cannot be ordered by enrichment ratio: ≤ 0.25 for the first, ≤ 0.25 for the second.

GLFP and LFTC cannot be ordered by enrichment ratio: ≤ 0.25 for the first, ≤ 0.25 for the second.

IIAD and KEPV cannot be ordered by enrichment ratio: ≤ 0.25 for the first, ≤ 0.25 for the second.

KKSQ and KFQK cannot be ordered by enrichment ratio: ≤ 0.25 for the first, ≤ 0.25 for the second.

VGRR and ISTD cannot be ordered by enrichment ratio: ≤ 0.25 for the first, ≤ 0.25 for the second.

AIYF and SRIT cannot be ordered by enrichment ratio: ≤ 0.25 for the first, ≤ 0.25 for the second.

Compared with DSMF, MAAV is higher in enrichment ratio: ≤ 0.25 for the first, 5.06 for the second.

IWKA and HLRD cannot be ordered by enrichment ratio: ≤ 0.25 for the first, ≤ 0.25 for the second.

FHKI and ALNW cannot be ordered by enrichment ratio: ≤ 0.25 for the first, ≤ 0.25 for the second.

Going from PIDW to FITL, the enrichment ratio rises from ≤ 0.25 to 0.497.

GGGM and KVET cannot be ordered by enrichment ratio: ≤ 0.25 for the first, ≤ 0.25 for the second.

First: SQAS
Second: ENYP
The enrichment ratio of the first is higher: 10.2 for the first, ≤ 0.25 for the second.

PWYD and QSES cannot be ordered by enrichment ratio: ≤ 0.25 for the first, ≤ 0.25 for the second.

NNAY and FEHA cannot be ordered by enrichment ratio: ≤ 0.25 for the first, ≤ 0.25 for the second.

GYCE and GQGY cannot be ordered by enrichment ratio: ≤ 0.25 for the first, ≤ 0.25 for the second.

AHPS and ETDD cannot be ordered by enrichment ratio: ≤ 0.25 for the first, ≤ 0.25 for the second.

Compared with NDLR, INAV is higher in enrichment ratio: ≤ 0.25 for the first, 1.16 for the second.

Going from SDGF to EYVL, the enrichment ratio falls from 0.624 to ≤ 0.25.

DVAA and AEES cannot be ordered by enrichment ratio: ≤ 0.25 for the first, ≤ 0.25 for the second.

PWAE and HDSP cannot be ordered by enrichment ratio: ≤ 0.25 for the first, ≤ 0.25 for the second.

Compared with KLRD, VALT is higher in enrichment ratio: ≤ 0.25 for the first, 2.18 for the second.

VQND and NHTH cannot be ordered by enrichment ratio: ≤ 0.25 for the first, ≤ 0.25 for the second.

EIYY and RPKA cannot be ordered by enrichment ratio: ≤ 0.25 for the first, ≤ 0.25 for the second.

Going from WITL to IYGD, the enrichment ratio falls from 0.966 to ≤ 0.25.

NRHG and VTIG cannot be ordered by enrichment ratio: ≤ 0.25 for the first, ≤ 0.25 for the second.

LMEN and KDYT cannot be ordered by enrichment ratio: ≤ 0.25 for the first, ≤ 0.25 for the second.

KLPV and DKSF cannot be ordered by enrichment ratio: ≤ 0.25 for the first, ≤ 0.25 for the second.

Going from DHAP to YTQA, the enrichment ratio falls from 1.17 to ≤ 0.25.

Going from SMTI to LFGF, the enrichment ratio falls from 8.27 to 1.14.

Compared with DCWS, QSMV is higher in enrichment ratio: ≤ 0.25 for the first, 8.22 for the second.

TRSH and IYTY cannot be ordered by enrichment ratio: ≤ 0.25 for the first, ≤ 0.25 for the second.

DALE and KFIG cannot be ordered by enrichment ratio: ≤ 0.25 for the first, ≤ 0.25 for the second.

GAPN and DVHI cannot be ordered by enrichment ratio: ≤ 0.25 for the first, ≤ 0.25 for the second.

Compared with ALLV, KCLE is lower in enrichment ratio: 7.92 for the first, ≤ 0.25 for the second.

FCRS and YARE cannot be ordered by enrichment ratio: ≤ 0.25 for the first, ≤ 0.25 for the second.

RKGW and FPWD cannot be ordered by enrichment ratio: ≤ 0.25 for the first, ≤ 0.25 for the second.

WNWF and MYRC cannot be ordered by enrichment ratio: ≤ 0.25 for the first, ≤ 0.25 for the second.

KHDN and KSLD cannot be ordered by enrichment ratio: ≤ 0.25 for the first, ≤ 0.25 for the second.

QDGD and MCDP cannot be ordered by enrichment ratio: ≤ 0.25 for the first, ≤ 0.25 for the second.

First: GANW
Second: YKVM
The enrichment ratio of the first is lower: ≤ 0.25 for the first, 0.276 for the second.

Going from HFDT to SQVS, the enrichment ratio rises from ≤ 0.25 to 5.66.

NNEV and GTVR cannot be ordered by enrichment ratio: ≤ 0.25 for the first, ≤ 0.25 for the second.

LSEQ and PDLI cannot be ordered by enrichment ratio: ≤ 0.25 for the first, ≤ 0.25 for the second.

AYIY and QEDP cannot be ordered by enrichment ratio: ≤ 0.25 for the first, ≤ 0.25 for the second.

KESF and VKCY cannot be ordered by enrichment ratio: ≤ 0.25 for the first, ≤ 0.25 for the second.

KNPT and KEYG cannot be ordered by enrichment ratio: ≤ 0.25 for the first, ≤ 0.25 for the second.

GTPN and FNEK cannot be ordered by enrichment ratio: ≤ 0.25 for the first, ≤ 0.25 for the second.

Going from ANMC to IIID, the enrichment ratio falls from 22.9 to ≤ 0.25.

Going from SFCG to DCTF, the enrichment ratio falls from 11.1 to ≤ 0.25.

First: KIQC
Second: YCLQ
The enrichment ratio of the first is lower: ≤ 0.25 for the first, 5.31 for the second.

QRMY and LKMT cannot be ordered by enrichment ratio: ≤ 0.25 for the first, ≤ 0.25 for the second.

Going from NVGD to RCHR, the enrichment ratio rises from ≤ 0.25 to 0.377.

ETVM and HSER cannot be ordered by enrichment ratio: ≤ 0.25 for the first, ≤ 0.25 for the second.

QNPV and SCRE cannot be ordered by enrichment ratio: ≤ 0.25 for the first, ≤ 0.25 for the second.

VLTE and KADR cannot be ordered by enrichment ratio: ≤ 0.25 for the first, ≤ 0.25 for the second.

WNRV and LRNG cannot be ordered by enrichment ratio: ≤ 0.25 for the first, ≤ 0.25 for the second.

DVQL and HSAN cannot be ordered by enrichment ratio: ≤ 0.25 for the first, ≤ 0.25 for the second.

TETR and IAQW cannot be ordered by enrichment ratio: ≤ 0.25 for the first, ≤ 0.25 for the second.

HGGM and RKEG cannot be ordered by enrichment ratio: ≤ 0.25 for the first, ≤ 0.25 for the second.

GFGS and MREC cannot be ordered by enrichment ratio: ≤ 0.25 for the first, ≤ 0.25 for the second.

GMQM and PHGS cannot be ordered by enrichment ratio: ≤ 0.25 for the first, ≤ 0.25 for the second.

TIMK and YCPV cannot be ordered by enrichment ratio: ≤ 0.25 for the first, ≤ 0.25 for the second.

YMNY and MRQR cannot be ordered by enrichment ratio: ≤ 0.25 for the first, ≤ 0.25 for the second.

Going from TTTG to RLHQ, the enrichment ratio falls from 7.1 to ≤ 0.25.

PLGV and AHRT cannot be ordered by enrichment ratio: ≤ 0.25 for the first, ≤ 0.25 for the second.

With SSCI the enrichment ratio was 24.5.
